Some of the results follow.
Legend:
HSkMC = human skeletal muscle cells; experiment: cytotoxicity call (relative viability < 0.9); settings: 10 µM
HepG2 = experiment: cytotoxicity call (relative viability < 0.9); settings: 10 µM
S. aureus RN4220 = experiment: growth inhibition call (relative growth <= 0.2); settings: 50 µM

C[C@H](CO)N1C[C@H](C)[C@H](CN(C)C(=O)Cc2ccccn2)Oc2ncc(C#CC3CCCC3)cc2C1=O
inactive: cytotoxicity call (HSkMC) | cytotoxicity call (HepG2) | growth inhibition call (S. aureus RN4220)

C[C@H]1CCCCO[C@H](CN(C)C(=O)Nc2ccc(C(F)(F)F)cc2)[C@@H](C)CN([C@@H](C)CO)C(=O)c2cc(NC(=O)c3ccncc3)ccc2O1
inactive: cytotoxicity call (HSkMC) | cytotoxicity call (HepG2) | growth inhibition call (S. aureus RN4220)

OCC1OC(OC2C(CO)OC(O)C(O)C2O)C(O)C(O)C1O (configuration not stated)
inactive: cytotoxicity call (HSkMC) | cytotoxicity call (HepG2) | growth inhibition call (S. aureus RN4220)

COCCCNC(=O)[C@@]1(Sc2ccc(C)cc2)CC(=O)N(C2Cc3ccccc3C2)[C@@H]1c1ccc(CO)cc1I
inactive: cytotoxicity call (HSkMC) | cytotoxicity call (HepG2) | growth inhibition call (S. aureus RN4220)

CN1C(=O)c2cc(NC(=O)Nc3ccccc3F)ccc2OC[C@H]2O[C@H](CC(=O)NCc3ccc(-c4ccccc4)cc3)CC[C@H]21
inactive: cytotoxicity call (HSkMC) | cytotoxicity call (HepG2) | growth inhibition call (S. aureus RN4220)

C[C@H]1CN([C@@H](C)CO)C(=O)c2cc(NS(C)(=O)=O)ccc2O[C@@H]1CN(C)Cc1ccc(C(=O)Nc2ccccc2N)cc1
inactive: cytotoxicity call (HSkMC) | cytotoxicity call (HepG2) | growth inhibition call (S. aureus RN4220)

CO[C@@H]1CN(C)C(=O)c2cc(NC(=O)Nc3ccccc3F)ccc2OC[C@@H](C)N(CCC(F)(F)F)C[C@H]1C
inactive: cytotoxicity call (HSkMC) | cytotoxicity call (HepG2) | growth inhibition call (S. aureus RN4220)

COc1ccc(cc1)CN1C[C@]2(CN(C2)S(=O)(=O)c2cn(cn2)C)c2c([nH]c3cc(ccc23)OC)[C@H]1CO
inactive: cytotoxicity call (HSkMC) | cytotoxicity call (HepG2) | growth inhibition call (S. aureus RN4220)

CN(C)CC#Cc1ccc([C@H]2[C@H](CO)N3C(=O)CN(C(=O)CN(C)C)C[C@@H]23)cc1
inactive: cytotoxicity call (HSkMC) | cytotoxicity call (HepG2) | growth inhibition call (S. aureus RN4220)

Source: the antibiotic and cytotoxicity screens of Wong et al. (2023)
